Source: ChEMBL document CHEMBL4888484, “Replenishing the malaria drug discovery pipeline: Screening and hit evaluation of the MMV Hit Generation Library 1 (HGL1) against asexual blood stage Plasmodium falciparum ,using a nano luciferase reporter read-out” (2022)
In all, about 150,000 compounds went through this assay and about 540 (0.36%) showed an effect of 50% or more. The list shows a part of the results.

tested on: Plasmodium falciparum; test: Primary screen in NF54 nanoGlo assay, in single point, at 2uM, 72h; a lower Z score goes with more inhibition; format: functional, Erythrocyte; conditions: timepoint 72 hour

SMILES | % Inhibition | Z score
O=C(COc1cc(C(F)F)nc2ccc(Cl)cc12)NC1CC1 | -16% | 1.59
CCc1ccc(-c2cc(C)no2)cc1S(=O)(=O)N1CC[C@H](c2cc(OC)ccc2OC)C1 | -2% | 0.33
Cc1cncc(C(=O)N[C@@H]2CN(c3ccncn3)C[C@H]2CO)c1 | -21% | 3.05
CCN1C[C@]2(CCCN(C(=O)c3ccn(C(F)F)n3)C2)CCC1=O | -10% | 1.28
O=C(N[C@H]1Cc2cccc(O)c2C1)c1cccc2c1CCOC2 | -2% | 0.32
CCCN(c1cc(C#N)ncn1)C1CC1 | -14% | 1.93
Cc1nc(N2CCN(C(=O)COc3ccc(Cl)cc3Cl)CC2)cc(C(F)(F)F)n1 | -17% | 2.16
C#CCCC1(CCC(=O)N2CCOCC2C2CCCN2C)N=N1 (stereo not given) | -1% | 0.21
N[C@@H]1CCN(C(=O)CCCOc2cccc(Cl)c2Cl)C1 | -9% | 1.71
CC(C)(C(=O)Nc1cc(F)c(C#N)cc1F)C(F)F | 1% | -0.16
N#CCC(=O)N1CCOCC(F)(F)C1 | 0% | -0.02
CCCc1cc(C(=O)N(CCO)Cc2nccn2C)no1 | 6% | -1.13
CC(C)Cc1cc(C(=O)N2C[C@H]3CC=CC[C@H]3C2)on1 | -5% | 0.98
C[C@@H](CCc1ccccc1)NS(=O)(=O)CC1CCCCC1 | -2% | 0.21
CCc1nsc(N2CCC(c3ncccn3)CC2)n1 | -3% | 0.34
CC(Nc1ccc(C#N)nc1)C1CCCOC1 (stereo not given) | 1% | -0.15
Cn1nc(CN2CCc3[nH]cnc3[C@@H]2C2CC2)c2c(Cl)cccc21 | -4% | 0.57
O=C(Cc1ccn(CC(F)(F)F)n1)N1CC[C@H](O)C12CCCC2 | 0% | -0.05
CCCc1ccc(-c2cn(CCN3CCNC3=O)nn2)o1 | -12% | 1.74
CN1CCC([C@H]2CCN(S(=O)(=O)c3cc(F)cc(F)c3)C2)CC1 | -9% | 1.3
Cc1sc2cc(C(=O)NCc3ccncc3)[nH]c2c1CN1CCCCC1 | 1% | -0.24
CN(CCOCC1CC1)C(=O)Nc1nc2c(s1)CCCC2 | -7% | 0.88

SMILES | % Inhibition | Z score
C[C@@H](CN1CCCCC1)NS(=O)(=O)c1cccnc1 | 6% | -0.92
O=C(CCc1c(-c2ccc(Cl)cc2)nc2ccc(-c3ccccc3Cl)cn12)NCc1ccccc1 | -1% | 0.27
O=C(O)CN(C1CCC1)S(=O)(=O)c1ccc(C(F)(F)F)s1 | -8% | 0.79
O=C(Nc1cccc(C(=O)N2CCc3ccc(Cl)cc32)c1)c1ccco1 | -7% | 0.66
COc1cc(C)c(CN2CCN(C)[C@]3(CCC(=O)N(C)CC3)C2)cc1C | -7% | 0.61
Cc1nnc2n1CC[C@@H](N(C)Cc1cc(F)ccc1F)CC2 | -6% | 0.92
O=C1C[C@H](N2CCC(c3nc4ccccc4s3)CC2)C(=O)N1 | 0% | 0.03
CC[C@H](NC(=O)N1CCN(Cc2ccc3c(c2)OCO3)CC1)c1nc(C)no1 | -6% | 1.13
CC(=O)N1CCN(Cc2c(-c3ccc(Cl)cc3)nc3ccc(-c4cccc(C)c4)cn23)CC1 | -14% | 2.1
Fc1ccc(N2CCCCC2)c(NCc2cc[nH]n2)c1 | -4% | 0.62
CCN(CCOc1ccc([C@H]2CC[C@H](N(C)C(=O)c3ccc(Cl)cc3)CC2)cc1)C1CC1 | -11% | 1.07
Clc1ccc2nc(N3CCC[C@H](c4nccn4CC4CC4)C3)ccc2c1 | -16% | 1.6
COCCCNC(=O)Nc1ncnn1C | -8% | 0.89
CC(C)c1scnc1C(=O)Nc1ccc(S(C)(=O)=O)cc1 | 0% | -0.03
CC1CC(C)CN(C(=O)c2ccc(Cl)c(S(=O)(=O)N3CCCCCC3)c2)C1 (stereo not given) | 5% | -0.84
CC(=O)Nc1cc(Cl)c(NC(=O)COC(C)C)c(Cl)c1 | -15% | 1.58
Cc1c(F)cccc1NS(=O)(=O)c1cc(-c2nc(C(C)(C)C)cs2)cs1 | -12% | 1.7
CCCOc1ccc(-c2csc(NC(=O)c3cc(-c4ccccc4)nc4ccccc34)n2)cc1 | -15% | 2.41
Cc1c[nH]c([C@H](C)NC(=O)N(C)CCn2ccnc2C)n1 | -1% | 0.22
Cn1cc(Cl)c(C(=O)NCC#C[C@@H]2CCCCO2)n1 | -15% | 1.95
CCCN(CCC)C(=O)[C@H]1CCC[C@H]1NC(=O)c1ccc(OC)nc1 | 2% | -0.26
O=C(NCc1nnc2ccccn12)c1ccccc1C(=O)c1ccc(Cl)cc1 | 2% | -0.15

SMILES | % Inhibition | Z score
COC[C@H]1CN(C)CC12CCN(Cc1ccc(F)c(Cl)c1)CC2 | -10% | 1.15
O=C(NCCn1ccc(C(F)(F)F)n1)c1ccsc1 | -17% | 2.11
COc1ccc(-c2cc(C(=O)N[C@H]3CCN(c4ccc(=O)[nH]n4)C3)c(C)n2C)cc1 | 82% | -5.36
CCc1ccccc1NC(=O)[C@H]1CCC[C@H]1NC(=O)c1cnc(C)cn1 | 7% | -0.96
CCCn1cc(CN2CCc3[nH]nc(CCc4ccccc4)c3C2)c(C)n1 | -9% | 1.25
COc1cccc(CC(=O)Nc2nnc([C@H]3CC(=O)N(c4ccc(Cl)cc4)C3)o2)c1 | -5% | 0.66
CC[C@@H](c1ccc(F)cc1F)N1CCN(C(=O)Nc2nncs2)CC1 | -14% | 2.04
Cc1ccc(Cc2nc(N3CCN(C(=O)c4ccc(Cl)c(Cl)c4)CC3)c3c(-c4cccnc4)noc3n2)cc1 | -1% | 0.07
NC(=O)c1ccc(O[C@H]2CCOC[C@@H]2NC(=O)c2cccc(N)n2)cc1 | -10% | 1.15
O=C(NCCNc1ncccn1)[C@@H]1CC=CCC1 | -8% | 0.71
Cc1cc(OCC(=O)N2CCN(C(=O)c3cccc(F)c3)CC2)no1 | -9% | 1.15
O=C(Nc1cccnc1-n1cccn1)c1ncc(F)cc1F | -6% | 0.82
Cc1ncsc1CNC(=O)CCc1ccc(Br)cc1 | -4% | 0.45
C[C@H](NS(=O)(=O)C1CN(C(=O)OCc2ccccc2)C1)C(N)=O | -6% | 1.11
COc1cccc(CC(=O)N2C[C@H]3CNC(=O)[C@]34CCCC[C@@H]24)c1 | -6% | 0.89
CCN(C)c1ccc(-c2noc([C@H]3CCCc4[nH]ncc43)n2)cc1 | -2% | 0.26
Cc1ccc(Cl)cc1S(=O)(=O)N[C@@H](C#N)C(C)C | 2% | -0.18
CN1CCc2ncnc(N3CCC[C@@H]3CCc3ccccn3)c2C1 | -2% | 0.3
Cc1nn(-c2ccccc2)c(C)c1-c1cc(C(=O)O)nc2c3cccnc3nn12 | -3% | 0.36
Cn1nncc1NC(=O)N[C@@H]1c2ccccc2CC[C@@H]1O | -10% | 1.81
O=C1CCc2cc(NC3CCOCC3)ccc2N1CC1CC1 | -18% | 2.38
O=c1c(S(=O)(=O)N2CCCCC2)cccn1Cc1cc(F)cc(F)c1 | -1% | 0.08

SMILES | % Inhibition | Z score
CC(C)n1cc(C(=O)N2CCC(Nc3ccccn3)CC2)cn1 | 8% | -0.96
COc1ccc2ncccc2c1NC(=O)C1CC1C (stereo not given) | -2% | 0.32
O=C(CCS(=O)(=O)c1ccc(Cl)cc1)NCc1ccco1 | 28% | -3.77
O=C(NC[C@H]1Cn2ccnc2CO1)c1cccnc1 | -3% | 0.45
Cc1cnn(C)c1CN1CCOC[C@H]1c1nc(-c2ccccc2)no1 | 16% | -2.06
Cc1ccc(C2=C[C@@H](c3ccc(C)cc3)n3nnnc3N2CC(=O)Nc2ccc(N(C)C)cc2)cc1 | 9% | -0.92
CC(C)n1cc(CNc2cccc3c2CCN(CC(C)(C)O)C3)nn1 | 1% | -0.1
COc1ncnc(N)c1CNc1cccc(-c2nncn2C)c1 | -1% | 0.1
Cc1noc(C)c1CNc1nccn(C)c1=O | -3% | 0.44
COc1ccc(OC[C@H]2CC3(CCCCC3)CN2C(=O)c2cscn2)cc1 | 0% | 0.01
Cc1cncc(NC(=O)[C@@H](N)C(F)(F)F)c1 | 1% | -0.2
COc1cccc([C@H](CN2CCN(S(=O)(=O)c3c(C)nn(C)c3Cl)CC2)OCc2ccc(C)cc2)c1 | -1% | 0.14
O=S(=O)(NCCc1nccs1)N1CCCC1 | -10% | 1.02
CC(=O)N[C@@H](CCC(N)=O)c1nc(CC(C)C)n[nH]1 | -18% | 2.27
CC(C)NC(=O)c1[nH]cnc1C(=O)NCc1ccccc1F | 18% | -2.26
CC1CN(Cc2cc3cc(Cl)cnc3o2)C1 | -7% | 0.96
CCOC(=O)c1sc([C@H](C)NC(=O)C#Cc2ccccc2)nc1C | 25% | -2.87
COc1ccc(C(=O)N[C@@H](c2ccc(C)cc2)c2cccnc2)cc1OC | -6% | 0.73
CCOC(=O)N1CCN(C(=O)c2ccc3c(=O)n4c(nc3c2)CCCCCC4)CC1 | -2% | 0.3
